# Measurements published in the BET-seq Pho4 binding data (Le et al. 2018).
# The list shows a part of the results. These are noisy estimates, calculated here from bound and input reads.
# Biological target: T1, Pho4 (S. cerevisiae) (UniProt P07270)
# T1 sequence: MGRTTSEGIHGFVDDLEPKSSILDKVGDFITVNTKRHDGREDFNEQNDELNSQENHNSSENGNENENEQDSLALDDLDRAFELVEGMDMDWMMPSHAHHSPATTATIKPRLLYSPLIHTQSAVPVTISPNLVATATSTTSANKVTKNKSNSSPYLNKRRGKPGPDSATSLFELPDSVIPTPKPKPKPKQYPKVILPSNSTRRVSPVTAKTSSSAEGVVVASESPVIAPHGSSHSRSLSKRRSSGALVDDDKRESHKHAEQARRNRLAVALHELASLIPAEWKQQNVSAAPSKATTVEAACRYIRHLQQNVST
# Experiment: relative binding free energy (BET-seq); higher = weaker binding
# Settings: reference: library average
row,Sequence,relative binding free energy [kcal/mol]
1,AAGTACACGTGATGTG,0.34
2,CATTTCACGTGAGGTT,0.47
3,TGGGGCACGTGAACAG,0.08
4,AGGGACACGTGGATGA,0.06
5,AGGTTCACGTGAATCT,0.35
6,GGGCTCACGTGTAAGG,0.41
7,GGGTGCACGTGATTGC,0.12
8,ATAGACACGTGAGGAG,0.39
9,GGCTTCACGTGTATTA,0.3
10,GCATTCACGTGGTGGT,0.14
11,TAAGGCACGTGATGGC,0
12,AGAGTCACGTGATTGA,0.21
13,GTGTTCACGTGGTTGC,0.27
14,ACTAGCACGTGTAGGT,0
15,GGGGGCACGTGTCAAG,-0.08
16,AGTGGCACGTGGAGTG,-0.06
17,CTTTCCACGTGTGTGG,0.11
18,AAAGCCACGTGTGGTG,-0.06
19,ATGGTCACGTGGGTCG,0.03
20,AGACTCACGTGTGTGA,0.37
21,TATCGCACGTGTAATA,0.25
22,ATTTACACGTGAGGCG,0.27
23,GGTTGCACGTGGCGTG,0.13
24,ATTTACACGTGGAGTT,0.27
25,GCGGTCACGTGTGGAT,0.29
26,ATGGTCACGTGGTGAG,0.06

row,Sequence,relative binding free energy [kcal/mol]
1,GTCTGCACGTGGGTTC,-0.03
2,AGAGTCACGTGTAGAT,0.2
3,TGGAGCACGTGGGAGT,-0.13
4,TTGGGCACGTGCATAG,-0.36
5,GACTGCACGTGTTTAT,0.16
6,TGAATCACGTGAGGGC,0.26
7,GGTATCACGTGGTGCA,0.04
8,GGTTGCACGTGAATTT,0.27
9,GTGGTCACGTGTGTAC,0.2
10,AGCTGCACGTGGAGTA,0.11
11,GTGGGCACGTGATGTC,-0.02
12,TGTGCCACGTGACTTG,0.08
13,TGTTGCACGTGCGTTA,-0.06
14,TTTCGCACGTGGTAGT,-0.16
15,GGCTACACGTGGTATT,0.02
16,GGTGTCACGTGTCGGA,0.19
17,CTTTTCACGTGGCTGT,0.17
18,CGGGCCACGTGTCGGG,0.01
19,TGTGACACGTGTCTAT,-0.02
20,GGTAGCACGTGTGCGC,-0.02
21,TAGAGCACGTGGTATG,-0.2
22,GCTAGCACGTGTGTGT,-0.13
23,GTTTACACGTGATATG,0.24
24,TGTCACACGTGCGGGG,0.1
25,AGAGGCACGTGTTCGT,-0.11
26,GCTTGCACGTGAGTTT,0.29

row,Sequence,relative binding free energy [kcal/mol]
1,AAGGTCACGTGATCGT,0.2
2,CGTGTCACGTGCTGTG,0.15
3,GTCAACACGTGTTGGG,0.13
4,GCTTGCACGTGGTCAG,-0.02
5,GTTGTCACGTGTAGGA,0.17
6,AGATGCACGTGAGATG,0.07
7,CGTGGCACGTGGGTGG,-0.36
8,TTAAGCACGTGGAGAT,-0.02
9,ATATTCACGTGGATGC,0.28
10,GTGGGCACGTGCGCTT,-0.11
11,AATTACACGTGGATTA,0.19
12,ATGGTCACGTGCTGTG,0.09
13,CATAACACGTGTGAGT,0.2
14,ACTATCACGTGTCGGT,0.32
15,AGTGACACGTGTGTCT,0.05
16,GAAGTCACGTGTAGAG,0.35
17,GTCAGCACGTGGGAGT,-0.12
18,TGCTGCACGTGTGTGC,0.07
19,TAGGACACGTGGGGGA,-0.24
20,TTGTTCACGTGAAGCT,0.35
21,TTCGCCACGTGTAGGT,0.01
22,TATTGCACGTGCGTCG,0.04
23,GGCGTCACGTGGCATG,0.16
24,CTTGGCACGTGCTATG,-0.13
25,AGGATCACGTGTTTCT,0.13
26,GGTAACACGTGGGTTT,-0.05

row,Sequence,relative binding free energy [kcal/mol]
1,TGTTACACGTGGAAAT,0.27
2,TTGTCCACGTGTTAGA,-0.04
3,TGGTCCACGTGCGGTA,-0.01
4,TCTTGCACGTGGGGAC,-0.07
5,TCTTTCACGTGAGTTA,0.34
6,GGTTACACGTGGTCCG,0.1
7,GAATGCACGTGGGGTG,-0.16
8,TGCGGCACGTGGTGAT,-0.18
9,TGAGTCACGTGTACGG,0.17
10,GAGAACACGTGTGGGC,0.11
11,CGGGCCACGTGGAATG,0.08
12,TTTGACACGTGAGGGT,0.17
13,CGTTTCACGTGGGTCG,0.05
14,GGAAGCACGTGGGTAT,-0.25
15,GTTATCACGTGCGATT,0.15
16,TGCTGCACGTGGCATG,-0.07
17,GTGAGCACGTGGTTCT,-0.01
18,ATAGACACGTGGTATA,-0.08
19,CGAATCACGTGGGGAG,0.11
20,TTGGTCACGTGTGTAA,0.17
21,GTTAGCACGTGTTTTT,0.06
22,ATAGACACGTGTGGAT,-0.02
23,TGAGGCACGTGTTTCA,-0.14
24,TTAAACACGTGCGGGT,0.11
25,TGTGACACGTGTGAAA,0.13
26,TTCTTCACGTGGTCTG,0.03

row,Sequence,relative binding free energy [kcal/mol]
1,GGGCTCACGTGAGTGA,0.24
2,GTTATCACGTGGCTGG,0.21
3,TTGGGCACGTGTGTAA,-0.1
4,TTGTCCACGTGCGGGT,-0.1
5,CGCATCACGTGGGGGG,0
6,TGGAACACGTGTTTCT,0.02
7,GGTTACACGTGCTGTT,0.1
8,TTTTTCACGTGCCATG,0.29
9,TATATCACGTGTCGTT,0.13
10,GTGCTCACGTGGGATA,0.33
11,TCGGTCACGTGTTAAG,0.14
12,GATTACACGTGGTGAT,0.01
13,CAAGTCACGTGGGTTG,-0.14
14,ATATGCACGTGGCTTA,-0.22
15,CTGTGCACGTGGGCTT,-0.21
16,TTGGACACGTGCCGTT,0.01
17,AGATTCACGTGCGTAT,0.42
18,TGGGGCACGTGCTCGG,-0.17
19,ACGTTCACGTGTAGTA,0.35
20,GTGGTCACGTGTGAGA,0.26
21,GGTTTCACGTGATTTC,0.43
22,GTACGCACGTGTGTGG,-0.17
23,AGAATCACGTGTAGGG,0.2
24,ATGGGCACGTGTTGCG,-0.1
25,TGGTTCACGTGCTGTC,0.23
26,CTGAGCACGTGAGTTG,0.25

row,Sequence,relative binding free energy [kcal/mol]
1,TTGGCCACGTGAGGGG,0.18
2,CGTTGCACGTGAGCGT,0.11
3,ATCGTCACGTGATAGG,0.21
4,TACTACACGTGTTGTA,0.05
5,GGTAGCACGTGATAAT,0.3
6,GTTGACACGTGATCGT,0.27
7,GGGATCACGTGGCCAG,0.24
8,AGGAGCACGTGTGATT,-0.05
9,AAGTGCACGTGACTGG,0.23
10,TATGGCACGTGCGATA,-0.13
11,TAGAGCACGTGGGCAG,-0.18
12,AATGGCACGTGGACGG,-0.13
13,TGCGGCACGTGGATTG,-0.02
14,TACGGCACGTGTAAAG,0.16
15,GAGTTCACGTGCCGGT,0.24
16,TTTAGCACGTGGGGCA,-0.23
17,AAGTGCACGTGTGTAA,0.04
18,TACTTCACGTGGATGG,0.33
19,TAGAGCACGTGGGCCG,-0.23
20,GATATCACGTGTAGTT,0.26
21,TGACTCACGTGGTGGT,0.18
22,AGGTACACGTGGAGGT,0.06
23,TCAGGCACGTGGTTAG,-0.08
24,AGTCTCACGTGTAAGG,0.18
25,ATGGTCACGTGGGGTA,-0.07
26,TATAGCACGTGTGCGC,0.03

row,Sequence,relative binding free energy [kcal/mol]
1,GCAAGCACGTGGTGGG,-0.09
2,TATTTCACGTGTAGCT,0.27
3,TTGAACACGTGTGTAG,0.01
4,CTGAGCACGTGGGGTA,-0.31
5,ATGTCCACGTGGCGGT,-0.12
6,GGTTTCACGTGGGTCT,0.19
7,TGAGTCACGTGTACTT,0.06
8,TTGAACACGTGATGGG,0.09
9,AATAACACGTGGGGTA,-0.21
10,GCTGGCACGTGTAGGA,-0.04
11,TCGGGCACGTGTGTAA,-0.11
12,TCTTTCACGTGGTATA,0.24
13,AAAGGCACGTGTCGTG,-0.12
14,TCGTACACGTGCGGTT,0.01
15,CTTGCCACGTGGGGTA,-0.2
16,GGGGGCACGTGTCTTG,-0.09
17,TATTGCACGTGGTTCT,-0.08
18,CCTAGCACGTGGGGAG,-0.02
19,CATGGCACGTGGGAGC,-0.12
20,TTACTCACGTGTTTTA,0.12
21,TCTGGCACGTGTCTTG,-0.04
22,GGCGGCACGTGAAGGG,0.38
23,AGAATCACGTGTGTAT,0.17
24,TGGTGCACGTGCCGGC,-0.14
25,TCTTTCACGTGATTTA,0.24
26,ATATTCACGTGTGCGA,0.34

row,Sequence,relative binding free energy [kcal/mol]
1,TCTGTCACGTGTCGAG,0.25
2,TGAGCCACGTGGTAGG,-0.13
3,GTTTGCACGTGCCGTG,0.07
4,AGGATCACGTGGAGTG,0.27
5,GGGAGCACGTGTAATA,0.02
6,AGAGACACGTGGTGAG,-0.06
7,TCATGCACGTGAGGTA,0.22
8,GTTTACACGTGTGGCA,0.1
9,GGGAACACGTGAGATG,0.39
10,AATTTCACGTGAAAGT,0.37
11,TTCTTCACGTGCTGGT,0.25
12,ACTGTCACGTGTCGTG,0.02
13,TCGCTCACGTGTGTGT,0.13
14,TTGAACACGTGTGTTC,0.15
15,TTACGCACGTGGTGAT,-0.19
16,TGAGACACGTGGTGGC,0.06
17,GTGGCCACGTGCGCGT,-0.07
18,CATAGCACGTGGGGGG,-0.28
19,CCTTGCACGTGGAGGG,-0.01
20,TTATGCACGTGGCAGT,-0.1
21,AGAGTCACGTGCGAGT,0.17
22,CCCGGCACGTGAGGGG,0.01
23,TGTCACACGTGGTAAT,0.05
24,TGAAGCACGTGGCGTG,-0.16
25,GCTATCACGTGGTAGG,0.01
26,GAGGTCACGTGGGGTG,0

row,Sequence,relative binding free energy [kcal/mol]
1,TGTCGCACGTGCGTGG,-0.18
2,AGTTACACGTGTGACT,0.36
3,TTATTCACGTGTAACT,0.25
4,TTAAACACGTGGGGTC,-0.06
5,TTCAGCACGTGATGGA,0.09
6,GTGAGCACGTGAGTGC,0.23
7,TAAGGCACGTGGGAAG,-0.18
8,GAACTCACGTGGAGGT,0.35
9,AGTCACACGTGGAGTA,0.11
10,AAATTCACGTGGCAGG,0.38
11,TTGTTCACGTGAAGGG,0.4
12,GGTGGCACGTGGGAGC,-0.04
13,AGTGTCACGTGTGATT,0.13
14,TTTTGCACGTGGCATG,-0.19
15,AAAAGCACGTGGAGTG,-0.18
16,TTGTGCACGTGCATTT,0
17,GGCTGCACGTGGTTGT,0.04
18,GAAAGCACGTGTTTTA,0.14
19,ACTTGCACGTGGAGGT,-0.16
20,ATTTACACGTGTTAGG,0.07
21,GGAGTCACGTGGATAT,0.17
22,AGGGGCACGTGGATCA,-0.11
